Reference: the supplement of paper PMC4166925
± gives the standard deviation of the averaged measurements. Over roughly 33,000 sequences, “E-score (dimensionless, -0.5 to 0.5)” has its median near -0.049; the highest 2% begin near 0.37. This is one part of the list.

tested on: T1, PmTbr T-box DNA-binding domain (GST fusion); assay: PBM E-score of 8-mer (E-score (dimensionless, -0.5 to 0.5)); Tbr is Tbrain of the sea star Patiria miniata (Pm) or the sea urchin Strongylocentrotus purpuratus (Sp); higher = stronger binding preference; most listed sequences are background and not binding sites; settings: the construct has about 5 more residues each side
T1 sequence: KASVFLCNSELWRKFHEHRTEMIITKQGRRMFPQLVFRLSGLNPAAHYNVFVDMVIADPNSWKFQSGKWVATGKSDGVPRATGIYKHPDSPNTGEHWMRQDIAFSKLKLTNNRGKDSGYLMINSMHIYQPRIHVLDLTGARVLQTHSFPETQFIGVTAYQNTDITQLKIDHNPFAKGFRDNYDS
Procedure, shortened: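 Using the Universal PBM Analysis Suite, every ungapped 8-mer received an enrichment E-score averaged over duplicate arrays. Probe intensities came from double-stranded Universal Agilent oligonucleotide arrays incubated with 200 nM GST-fused Tbr T-box DNA-binding domain in PBS (pH 7.5). That protein was expressed in BL21 E. coli at 20 °C and purified by glutathione affinity chromatography.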

Compared with CAAGGTAG, CGGTCGTA is lower in “PBM E-score of 8-mer” value: 0.0168 ± 0.033 for the first, -0.154 ± 0.11 for the second.

First: GCAAAAGC
Second: AAGCAATT
The “PBM E-score of 8-mer” value of the first is higher: 0.037 ± 0.06 for the first, -0.296 ± 0.047 for the second.

First: AGATGTGA
Second: TATGAAGA
The “PBM E-score of 8-mer” value of the first is higher: 0.357 ± 0.01 for the first, -0.156 ± 0.019 for the second.

Going from GCATTTTA to CGTGTGAG, the “PBM E-score of 8-mer” value rises from -0.0745 ± 0.018 to 0.363 ± 0.013.

First: CATCGACC
Second: ACGGCACT
The “PBM E-score of 8-mer” value of the first is higher: 0.0634 ± 0.025 for the first, -0.184 ± 0.014 for the second.

AAAACTCA and GAATGATA are within error of each other in “PBM E-score of 8-mer” value: -0.126 ± 0.05 for the first, -0.177 ± 0.015 for the second.

Going from CCGTCCTA to ACAGCTAT, the “PBM E-score of 8-mer” value rises from -0.275 ± 0.02 to 0.217 ± 0.043.

GCTGTTAA and CAGTGACG are within error of each other in “PBM E-score of 8-mer” value: 0.199 ± 0.089 for the first, 0.134 ± 0.011 for the second.

Compared with ACGCGTTG, CTTACGCC is lower in “PBM E-score of 8-mer” value: 0.187 ± 0.0046 for the first, 0.108 ± 0.029 for the second.

Compared with ATCGGGTA, TACATCGA is higher in “PBM E-score of 8-mer” value: -0.246 ± 0.072 for the first, -0.0841 ± 0.064 for the second.

AGGAATCC and CCAGTTCG are within error of each other in “PBM E-score of 8-mer” value: -0.228 ± 0.051 for the first, -0.194 ± 0.018 for the second.

First: CAGGCCCA
Second: GTACCAAC
The “PBM E-score of 8-mer” value of the first is lower: -0.313 ± 0.039 for the first, -0.0487 ± 0.11 for the second.

ATCGAAAC and GCCTAAAA are within error of each other in “PBM E-score of 8-mer” value: -0.0958 ± 0.024 for the first, -0.113 ± 0.042 for the second.

CCTGCGCA and ACGCTGAC are within error of each other in “PBM E-score of 8-mer” value: 0.0979 ± 0.052 for the first, -0.0163 ± 0.12 for the second.

Going from AAATGCAG to GCGCCATA, the “PBM E-score of 8-mer” value rises from -0.218 ± 0.083 to 0.125 ± 0.0078.

AGTTTGCA and TCTTGCCA are within error of each other in “PBM E-score of 8-mer” value: 0.0343 ± 0.036 for the first, 0.0678 ± 0.023 for the second.

First: TCAGGGAA
Second: CACAGATC
The “PBM E-score of 8-mer” value of the first is lower: -0.115 ± 0.034 for the first, 0.0575 ± 0.025 for the second.

AATGGGTC and CGTCGTAA are within error of each other in “PBM E-score of 8-mer” value: -0.142 ± 0.021 for the first, -0.109 ± 0.033 for the second.

CCGATCCC and AAGATTGG are within error of each other in “PBM E-score of 8-mer” value: -0.171 ± 0.081 for the first, -0.131 ± 0.058 for the second.

GGCACGAC and AAATTCTG are within error of each other in “PBM E-score of 8-mer” value: 0.00736 ± 0.0017 for the first, 0.00903 ± 0.054 for the second.

Compared with ACCTAGTG, CAACTTCC is lower in “PBM E-score of 8-mer” value: 0.223 ± 0.013 for the first, -0.0171 ± 0.036 for the second.

Going from AGAGACTA to CACAGCTC, the “PBM E-score of 8-mer” value rises from -0.135 ± 0.0073 to 0.227 ± 0.0088.

First: AAAGACAA
Second: ACCTGTTC
The “PBM E-score of 8-mer” value of the first is lower: -0.172 ± 0.069 for the first, 0.218 ± 0.031 for the second.

First: CATGTGGG
Second: CACAGTGA
The “PBM E-score of 8-mer” value of the first is lower: -0.0208 ± 0.025 for the first, 0.15 ± 0.019 for the second.

AACGGTTC and GTCAGTTA are within error of each other in “PBM E-score of 8-mer” value: 0.0827 ± 0.042 for the first, 0.0514 ± 0.0075 for the second.

Going from CCGGCAAA to ACACCATC, the “PBM E-score of 8-mer” value rises from -0.126 ± 0.059 to 0.3623 ± 0.0033.

Compared with AGCACAAT, GTAATAAA is lower in “PBM E-score of 8-mer” value: 0.0257 ± 0.032 for the first, -0.195 ± 0.099 for the second.

Compared with ATCTACTG, GCACGTTA is higher in “PBM E-score of 8-mer” value: -0.184 ± 0.041 for the first, 0.216 ± 0.031 for the second.

Going from ACCGACGT to CATTCACA, the “PBM E-score of 8-mer” value rises from -0.0477 ± 0.005 to 0.385 ± 0.0049.

ACTTGCTC and CCCAGGCG are within error of each other in “PBM E-score of 8-mer” value: -0.0342 ± 0.093 for the first, -0.0696 ± 0.036 for the second.

First: CTCTTCTC
Second: ACCATAAT
The “PBM E-score of 8-mer” value of the first is lower: -0.238 ± 0.028 for the first, -0.023 ± 0.091 for the second.

CATGTTTA and GGAACTGA are within error of each other in “PBM E-score of 8-mer” value: -0.058 ± 0.078 for the first, -0.00021 ± 0.054 for the second.

Compared with ACGGATAG, ATGTAAGG is lower in “PBM E-score of 8-mer” value: 0.08 ± 0.03 for the first, -0.101 ± 0.073 for the second.

First: CCAGAGCC
Second: CGCTTCTC
The “PBM E-score of 8-mer” value of the first is lower: -0.17 ± 0.0096 for the first, 0.103 ± 0.028 for the second.

First: GACTAATA
Second: ACGGCCGA
The “PBM E-score of 8-mer” value of the first is higher: -0.102 ± 0.011 for the first, -0.316 ± 0.0043 for the second.

Going from CAGCGTCG to GATCTATA, the “PBM E-score of 8-mer” value rises from -0.0943 ± 0.09 to 0.0424 ± 0.02.

First: CTGGCCAC
Second: ACCTGTCC
The “PBM E-score of 8-mer” value of the first is lower: 0.0141 ± 0.043 for the first, 0.151 ± 0.022 for the second.

Compared with AGTTAGCC, CAAACCCG is higher in “PBM E-score of 8-mer” value: -0.112 ± 0.064 for the first, 0.0206 ± 0.045 for the second.

Compared with AGTGAACA, TGGTCGAA is lower in “PBM E-score of 8-mer” value: 0.169 ± 0.0073 for the first, -0.187 ± 0.032 for the second.

TAGAAATA and GATTTGTA are within error of each other in “PBM E-score of 8-mer” value: -0.196 ± 0.012 for the first, -0.185 ± 0.12 for the second.

CGCTTTAG and GTTGTTGA are within error of each other in “PBM E-score of 8-mer” value: 0.0898 ± 0.14 for the first, 0.245 ± 0.029 for the second.

Compared with AGAATGCC, AATTTTGC is higher in “PBM E-score of 8-mer” value: -0.272 ± 0.043 for the first, 0.0935 ± 0.083 for the second.

Going from AAGCCCTG to AATATGCG, the “PBM E-score of 8-mer” value rises from -0.226 ± 0.021 to 0.139 ± 0.038.

Compared with GAAATGAC, GCAGGACC is lower in “PBM E-score of 8-mer” value: 0.177 ± 0.068 for the first, -0.079 ± 0.057 for the second.

First: CCACTATA
Second: GTTTCCGA
The “PBM E-score of 8-mer” value of the first is higher: 0.0251 ± 0.017 for the first, -0.12 ± 0.0075 for the second.

CCCATTCG and GCCGGAGC are within error of each other in “PBM E-score of 8-mer” value: -0.0815 ± 0.052 for the first, -0.208 ± 0.13 for the second.

First: CAGCATCG
Second: AGGGATTC
The “PBM E-score of 8-mer” value of the first is higher: -0.0296 ± 0.0072 for the first, -0.151 ± 0.015 for the second.

Compared with CGCTGGCA, CCATATGC is lower in “PBM E-score of 8-mer” value: 0.163 ± 0.039 for the first, -0.0165 ± 0.011 for the second.

Compared with CCCCATAA, CCTATTAG is higher in “PBM E-score of 8-mer” value: -0.182 ± 0.07 for the first, -0.0353 ± 0.025 for the second.

Going from ACTCGCCG to CATCCCGC, the “PBM E-score of 8-mer” value falls from 0.146 ± 0.035 to -0.174 ± 0.0089.

GTACACCA and CAGACTCA are within error of each other in “PBM E-score of 8-mer” value: -0.113 ± 0.087 for the first, -0.129 ± 0.033 for the second.

Going from AGCCGCGA to ATACGAGG, the “PBM E-score of 8-mer” value falls from 0.232 ± 0.0095 to -0.335 ± 0.023.

Compared with CGTCGCGC, GGACGATA is lower in “PBM E-score of 8-mer” value: 0.245 ± 0.066 for the first, -0.0612 ± 0.089 for the second.

AAACTAGT and GATTCCGA are within error of each other in “PBM E-score of 8-mer” value: -0.177 ± 0.0073 for the first, -0.212 ± 0.03 for the second.

ATGAGCGC was tested, and the “PBM E-score of 8-mer” value was -0.289 ± 0.02.
